# Measured values published in the supplement of paper PMC11417369.
# ± gives the standard deviation of the averaged measurements. The list shows a part of the results.
# System: PfAP2-I AP2 domain 3 (GST-tagged)
# Test: gcPBM binding intensity (ln(normalized median fluorescence intensity)); higher = stronger DNA binding
# How it was run: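 GST-tagged P. falciparum DNA-binding domains produced in E. coli were incubated for 1 h on an Agilent 4 × 180k array of primer-extended double-stranded 36-bp intergenic genomic probes with negative controls. Binding intensity is the highest Masliner-normalised natural-log median intensity across replicate spots of either probe orientation, with bound protein detected by Alexa488 anti-GST antibody at 488 nm.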
row,Sequence,gcPBM binding intensity (ln)
1,TAATTATATATATATGCATGTTATAATTTTTATTTT [TGCATGCA_site78],7.68 ± 0.59
2,TCTTTAACAAGTTAAACACACATACATAAATACATA [CACACA_site5406],7.76 ± 0.5
3,TTATGTCATAAATGCACACATATACATTGTTTTGAT [CACACA_site646],9.74 ± 0.27
4,TATTATAAAAATATTCAGATACATTAACTTACTTTT [XGTACX_negctrl_site4],7.17 ± 0.52
5,TATTTGCTACATATATGTACTAAAAACTTTTTGCTT [XGTACX_site2362],7.83 ± 0.45
6,TGTGTGTGTTCATGGGTGCTTTAATACTATTATAGG [GTGCAC_site9465],11 ± 0.61
7,TATCAATTTTTCTGGCTATCCAATTAGGGGAAGCCA [CACACA_negctrl_site1045],7.2 ± 0.46
8,CAAAAAATTTGACGTAGTACTTAAAAAAAAAAAAAA [XGTACX_site4523],7.95 ± 0.54
9,ATTTGCTCACAAGAAGCACACAAAAAAAGAAAAAAA [CACACA_site9338],7.96 ± 0.42
10,ATGAATTATAAATATTCACACAATATTTTTCATATG [CACACA_site4484],7.67 ± 0.61
11,AGTGTGCTCAGCTTAGCACAAATTGGAATACCATGT [CACACA_negctrl_site367],8.31 ± 0.67
12,GAAAATGAAATCCTTGCATGTAAAATTAAAATAGAA [TGCATGCA_site569],7.67 ± 0.79
13,TTTTTTTCTTAAAGATGTACTTTTTAAAAATAATCT [XGTACX_site1429],7.87 ± 0.39
14,GTAGTAATAAATTAAAGTACAGAATATATTATACTA [XGTACX_site2809],7.67 ± 0.45
15,ACAAAACTTTTAAGAACACACAAAAATGTACTATCG [CACACA_site7245],7.56 ± 0.61
16,CATTTACATGCCAACATGCACTGAACAATCTTTATA [GTGCAC_site9797],8.61 ± 0.37
17,TACAAAAAAAAATAAAATACATATATATATATATAT [XGTACX_negctrl_site608],9.71 ± 0.12
18,CCCTATATAAATAGCTGTACATTTGAACATGTTCAG [XGTACX_site2187],7.84 ± 0.45
19,TTTTATGAATAATTATGTACATAACAAATGATATAT [XGTACX_site8318],7.98 ± 0.48
20,TTTACAGGAAAAAATACACACATTATTTTACCTTAT [CACACA_site2833],7.62 ± 0.45
21,ACATGCCAAAATCTAATACAATAATAATAAAAAAAA [XGTACX_negctrl_site160],7.5 ± 0.6
22,CAATAAAAATTAAAATGTACAAATAAATATAAATAT [XGTACX_site7265],7.63 ± 0.42
23,CAATAAATCGAAATCGTGCACGGACACATGCAGTAG,10.4 ± 0.56
24,ATATATATAATAAGTGGTACAAGTTATTCATTAAAT [XGTACX_site7063],8.14 ± 0.42
